# Experimental data: the supplement of paper PMC10037445
# Over roughly 2,900 compounds, “NF-kB SEAP reporter activity, fold change vs agonist alone” has its median near 0.99; the highest 2% begin near 2.6. The list shows a part of the results.
# Experiments:
# RAW-Dual [1] = assay: NF-kB SEAP reporter activity, fold change vs agonist alone; cytotoxicity flag (confluency mask): not cytotoxic; higher = enhanced NF-kB activity
# In short: (§1)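 After 50 nL of library stock was delivered by pin tool to RAW-Dual macrophages (50,000 cells/well, DMEM, 384-well plates), a PRR agonist was added 1 h later and the plates were kept at 37 °C, 5% CO2. Twenty hours later, IRF was read from supernatant by QuantiLuc luminescence and NF-κB by QuantiBlue absorbance at 620 nm. Reporter activity is stated as fold change over agonist-alone wells. Wells with IncuCyte confluency under 70% of agonist controls in both mask sets were counted as cytotoxic.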
# RAW-Dual [2] = assay: NF-kB SEAP reporter activity, fold change vs agonist alone; higher = enhanced NF-kB activity; conditions: library stock concentration (final ~1000-fold dilution): 10 mM
# In short: as §1
# RAW-Dual [3] = assay: NF-kB SEAP reporter activity, fold change vs agonist alone; cytotoxicity flag (confluency mask): cytotoxic (confluency <70% of control); higher = enhanced NF-kB activity
# In short: as §1
# [4] = agonist: ODN 1826 (TLR9) 0.5 ug/mL
# [5] = agonist: Pam2CSK4 (TLR2/6) 0.1 ug/mL
# [6] = agonist: Pam3CSK4 (TLR2/1) 0.1 ug/mL
# [7] = cytotoxicity flag (confluency mask): not cytotoxic, agonist: Imiquimod (TLR7) […]
# [8] = cytotoxicity flag (confluency mask): not cytotoxic, agonist: MPLA (TLR4) […]
compound,measurement,setting,value
CN1CCN(C(=O)c2cc3cc(Cl)ccc3[nH]2)CC1 (library stock concentration (final ~1000-fold dilution): 10 mM),NF-kB SEAP reporter activity,RAW-Dual [1]; agonist: LPS (TLR4) 0.1 ug/mL,0.992
same,NF-kB SEAP reporter activity,RAW-Dual [1]; [4],0.851
same,NF-kB SEAP reporter activity,RAW-Dual [1]; [5],1.01
same,NF-kB SEAP reporter activity,RAW-Dual [1]; [6],0.978
CN1CCN(C(=O)c2cc3cc(Cl)ccc3[nH]2)CC1,NF-kB SEAP reporter activity,RAW-Dual [2]; [7],1.03
same,NF-kB SEAP reporter activity,RAW-Dual [2]; [8],0.988
Brc1ccc2[nH]ccc2c1,NF-kB SEAP reporter activity,RAW-Dual [2]; [8],1.26
Brc1ccc2[nH]ccc2c1 (library stock concentration (final ~1000-fold dilution): 10 mM),NF-kB SEAP reporter activity,RAW-Dual [1]; agonist: LPS (TLR4) 0.1 ug/mL,1.61
same,NF-kB SEAP reporter activity,RAW-Dual [1]; [4],1.12
same,NF-kB SEAP reporter activity,RAW-Dual [1]; [5],1.18
same,NF-kB SEAP reporter activity,RAW-Dual [1]; [6],1.11
COc1ccc(CCC(=O)c2c(O)cc(O[C@@H]3O[C@H](CO)[C@@H](O)[C@H](O)[C@H]3O[C@@H]3O[C@@H](C)[C@H](O)[C@@H](O)[C@H]3O)cc2O)cc1O (library stock concentration (final ~1000-fold dilution): 10 mM),NF-kB SEAP reporter activity,RAW-Dual [1]; agonist: LPS (TLR4) 0.1 ug/mL,0.951
same,NF-kB SEAP reporter activity,RAW-Dual [1]; [4],1.05
same,NF-kB SEAP reporter activity,RAW-Dual [1]; [5],1.1
same,NF-kB SEAP reporter activity,RAW-Dual [1]; [6],1.04
COc1ccc(CCC(=O)c2c(O)cc(O[C@@H]3O[C@H](CO)[C@@H](O)[C@H](O)[C@H]3O[C@@H]3O[C@@H](C)[C@H](O)[C@@H](O)[C@H]3O)cc2O)cc1O,NF-kB SEAP reporter activity,RAW-Dual [2]; [7],0.55
same,NF-kB SEAP reporter activity,RAW-Dual [2]; [8],0.935
CC(C)(C)CC(C)(C)c1ccc(OCCOCC[N+](C)(C)Cc2ccccc2)cc1,NF-kB SEAP reporter activity,"RAW-Dual [2]; cytotoxicity flag (confluency mask): cytotoxic (confluency <70% of control), agonist: Imiquimod (TLR7) […]",1.76
same,NF-kB SEAP reporter activity,"RAW-Dual [2]; cytotoxicity flag (confluency mask): cytotoxic (confluency <70% of control), agonist: MPLA (TLR4) […]",1.66
CC(C)(C)CC(C)(C)c1ccc(OCCOCC[N+](C)(C)Cc2ccccc2)cc1 (library stock concentration (final ~1000-fold dilution): 10 mM),NF-kB SEAP reporter activity,RAW-Dual [3]; agonist: LPS (TLR4) 0.1 ug/mL,1.95
same,NF-kB SEAP reporter activity,RAW-Dual [3]; [4],0.804
same,NF-kB SEAP reporter activity,RAW-Dual [3]; [5],0.197
same,NF-kB SEAP reporter activity,RAW-Dual [3]; [6],0.384
O=C(O)c1cc(I)ccc1NC(=O)C(Cc1ccccc1)NCc1ccccc1 (configuration not stated),NF-kB SEAP reporter activity,RAW-Dual [2]; [7],0.929
same,NF-kB SEAP reporter activity,RAW-Dual [2]; [8],1.05
O=C(O)c1cc(I)ccc1NC(=O)C(Cc1ccccc1)NCc1ccccc1 (configuration not stated) (library stock concentration (final ~1000-fold dilution): 10 mM),NF-kB SEAP reporter activity,RAW-Dual [1]; agonist: LPS (TLR4) 0.1 ug/mL,0.888
same,NF-kB SEAP reporter activity,RAW-Dual [1]; [4],0.931
same,NF-kB SEAP reporter activity,RAW-Dual [1]; [5],0.941
same,NF-kB SEAP reporter activity,RAW-Dual [1]; [6],1.13
COc1ccc(CCC(=O)Nc2nc3ccc(Cl)cc3s2)cc1OC (library stock concentration (final ~1000-fold dilution): 10 mM),NF-kB SEAP reporter activity,RAW-Dual [1]; agonist: LPS (TLR4) 0.1 ug/mL,0.883
same,NF-kB SEAP reporter activity,RAW-Dual [1]; [4],0.897
same,NF-kB SEAP reporter activity,RAW-Dual [1]; [5],1.01
same,NF-kB SEAP reporter activity,RAW-Dual [1]; [6],1.37
COc1ccc(CCC(=O)Nc2nc3ccc(Cl)cc3s2)cc1OC,NF-kB SEAP reporter activity,RAW-Dual [2]; [7],0.899
same,NF-kB SEAP reporter activity,RAW-Dual [2]; [8],1.1
CC(C(=O)Nc1cccc(N=Cc2c(O)ccc3ccccc23)c1)c1ccccc1 (configuration not stated) (library stock concentration (final ~1000-fold dilution): 10 mM),NF-kB SEAP reporter activity,RAW-Dual [1]; agonist: LPS (TLR4) 0.1 ug/mL,6.64
Cc1cc2c(C(=O)NCC(C)c3ccccc3)c(O)c(O)cc2c(O)c1-c1c(C)cc2c(C(=O)NCC(C)c3ccccc3)c(O)c(O)cc2c1O (configuration not stated) (library stock concentration (final ~1000-fold dilution): 10 mM),NF-kB SEAP reporter activity,RAW-Dual [1]; agonist: LPS (TLR4) 0.1 ug/mL,4.28
same,NF-kB SEAP reporter activity,RAW-Dual [1]; [4],2.93
same,NF-kB SEAP reporter activity,RAW-Dual [1]; [5],0.803
same,NF-kB SEAP reporter activity,RAW-Dual [1]; [6],1.62
Cc1cc2c(C(=O)NCC(C)c3ccccc3)c(O)c(O)cc2c(O)c1-c1c(C)cc2c(C(=O)NCC(C)c3ccccc3)c(O)c(O)cc2c1O (configuration not stated),NF-kB SEAP reporter activity,RAW-Dual [2]; [7],1.84
same,NF-kB SEAP reporter activity,RAW-Dual [2]; [8],2.27
